PubChem BioAssay AID1963576 (National Center for Advancing Translational Sciences (NCATS), 2024)
Hit rate of the full screen: of about 46,000 compounds, about 60 (0.1%) were called active. About 3% were inconclusive and are not listed. Calls follow the shape of the dose curve; as a rule, active = well fitted inhibition curve with a large enough effect; inconclusive = small, poorly fitted or top-dose-only effect; inactive = no such curve, though single readings can be large or run the other way. Some of the results follow.

Experiment: Primary qHTS assay for Inhibitors of ovarian cancer metastasis using an organotypic tumor microenvironment (TME) model. Also: nearly all actives have a fitted effect of over 65% in size.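 As to activity change, negative = inhibition: plate controls were DMSO wells for no effect and tomatine positive control wells for full effect.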
Conditions: SKOV3ip1-GFP adhesion/invasion on 3D omental model, fluorescence; series mostly up to 45.8 µM; activity change, negative = inhibition: at the top concentration
Procedure, shortened: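 Primary human omental fibroblast/mesothelial 3D culture pre-formed 48 h. SKOV3ip1-GFP cells added with compounds (0.36-46 umol/L), incubated 2 h RT/16 h 37 C, fixed; GFP cells quantified at 488/509 nm.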

outcome, inactive:
CN(C)c1ccc(CNC(=O)c2ccc3nc(Cc4ccccc4)oc3c2)cc1
Cc1ccc(C(=O)c2c(N)c(C(=O)Nc3cccc(C(F)(F)F)c3)c3ccccn23)cc1
O=C(CSc1nc2c(oc3ccccc32)c(=O)n1-c1ccccc1)Nc1ccc(F)c(Cl)c1
Fc1ccc(N2CCN(c3ncnc4onc(-c5ccc(Cl)cc5)c34)CC2)cc1
COc1cccc(C2C(C(N)=O)=C(C)Nc3ncnn32)c1 (configuration not stated)
CCc1ccc(-n2c(=O)c3ccccc3n(Cc3ccccc3C#N)c2=O)cc1
O=C(c1ccc2c(c1)N(Cc1ccc(Cl)cc1)C(=O)c1ccccc1S2(=O)=O)N1CCOCC1
CCCCC(CC)CNC(=O)CCCCCn1c(=O)[nH]c2ccsc2c1=O (configuration not stated)
CCOc1ccccc1NC(=O)Cn1c(=O)n(Cc2ccco2)c(=O)c2sc3ccccc3c21
CCOC(=O)c1c(NC(C)=O)c2c3c(sc2n1Cc1cc(C)ccc1C)CCCC3
COc1ccc(N2CC(NC(=O)COc3cccc(C)c3)CC2=O)cc1OC (configuration not stated)
COc1ccc(OC)c(NC(=O)C(C)n2c(=O)c(-c3ccccc3NC(C)=O)nc3ccccc32)c1 (configuration not stated)

Activity change, negative = inhibition, inactive:
Cc1nc2nc(NCc3ccc(Br)cc3)[nH]n2c(=O)c1Cc1ccccc1 1.03%
CCCCOc1ccc(C(=O)Nc2cccc(-c3nc4ccccc4o3)c2C)cc1 -4.59%
Cc1ccc(-n2c(=O)c3oc4ccccc4c3n(Cc3cccc(F)c3)c2=O)cc1C 7.07%
Cc1cccn2c(=O)c(C(=O)N3CCN(c4ccccc4)CC3)cnc12 1.14%
COc1ccc(OC)c(NC(=O)C2=C(C)C(=O)OC23CCN(C(C)C)CC3)c1 79.5%
CC(C)c1ccc(NC(=O)c2ccc(=O)n(Cc3ccccc3)c2)cc1 -9.53%
CCCC(=O)Nc1ccc2oc(-c3ccc(O)c(Br)c3)nc2c1 -6.24%
Cc1ccc(N(CC2=NCCN2)c2cccc(O)c2)cc1 -3.72%
CCC(O)c1nc2ccccc2n1Cc1cc(C)ccc1C (configuration not stated) 3.09%
Cc1ccc(C)c(N2CCN(C(=O)Cn3nc(C)c4sc5ccccc5c4c3=O)CC2)c1 13%
COc1ccccc1N(CC(=O)Nc1ccccc1C(F)(F)F)S(=O)(=O)c1ccc(C)cc1 0.353%
COc1ccccc1NS(=O)(=O)c1cn(C)c(C)n1 6.81%
COc1ccc(-c2nc(CSCC(=O)NCCC(C)C)c(C)o2)cc1OC 9.74%
O=C(CC1Sc2ccccc2NC1=O)Nc1cccc(C(F)(F)F)c1 (configuration not stated) -28.1%
Cc1ccc(NC(=O)C2CCN(S(=O)(=O)c3ccc4c(c3)CCCC(=O)N4)CC2)cc1N(C)C -1.89%
